In PubChem BioAssay AID1745853 (National Center for Advancing Translational Sciences (NCATS), 2022) one finds activity change, negative = inhibition data, which are given here for 38 compounds.

Holding throughout (experiment): Primary Screen for Target Class Profiling of Small Molecule Inhibitors of Methyltransferases
The target in test [1] is Glycine N-methyltransferase (Homo sapiens) (UniProt Q14749). Conditions: purified enzyme, MTase-Glo SAH luminescence; measured here: GNMT inhibition; at 40 µM; stronger effect = lower value. The method, boiled down:
(§1)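 Each enzyme was assayed with SAM and its substrate. SAH formation detected by MTase-Glo luminescence; single-point 40 uM screen[…].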

In test [2] the target is Guanidinoacetate N-methyltransferase (Homo sapiens) (UniProt Q14353). Conditions: purified enzyme, MTase-Glo SAH luminescence; measured here: GAMT inhibition; at 40 µM; stronger effect = lower value. The essentials:
as §1

For test [3], the target named is Histamine N-methyltransferase (Homo sapiens) (UniProt P50135). The following applies: purified enzyme, MTase-Glo SAH luminescence; measured here: HNMT inhibition; at 40 µM; stronger effect = lower value. The essentials:
as §1

In test [4] the target is Nicotinamide N-methyltransferase (Homo sapiens) (UniProt P40261). The following applies: purified enzyme, MTase-Glo SAH luminescence; measured here: NNMT inhibition; at 40 µM; stronger effect = lower value. The essentials:
as §1

For test [5], the target named is Phenylethanolamine N-methyltransferase (Homo sapiens) (UniProt P11086). The following applies: purified enzyme, MTase-Glo SAH luminescence; measured here: PNMT inhibition; at 40 µM; stronger effect = lower value. The method, boiled down:
as §1

The list shows a part of the results. Shown are side measurements of this screen, not its main read-out; they come without a call.
On the % scale 0 is the no-effect control and ±100 the full control effect.

Take `COCCn1c(C)nnc1-c1cc(-c2ccc(OC)c(OC)c2)ccn1`: the activity change, negative = inhibition in test [1] was -14.2%; in test [2] it was -13.3%; in test [3], -9.77%; in test [4], -20.4%; in test [5], -13.6%.
Turning to `CC1(C(=O)NC2CCCC2)Cn2c(ccc2-c2ccco2)C(=O)N1Cc1ccccc1Cl` (stereo not drawn), the activity change, negative = inhibition in test [1] is -3.79%; in test [2], 1.97%; in test [3], -1.85%; in test [4] it was -8.78%; in test [5] it was -2.51%.
`COCCn1c(C)cnc1CCNS(=O)(=O)Cc1ccccc1F`: the activity change, negative = inhibition was -3.05% in test [1]; -2.45% in test [2]; -0.891% in test [3]; -5.94% in test [4]; -16.5% in test [5].
The matching figures for `Cc1ccc(Cn2c(=O)c3ccccc3n3c(CCC(=O)NCC(C)c4ccccc4)nnc23)cc1` (stereo not drawn): -10.2%, 0%, 2.56%, -29.5% and -0.983%.
Turning to `O=C(O)CCC(=O)N1CC[C@@H]2[C@H]1C(=O)N(c1ccc(F)c(Cl)c1)C(=O)N2Cc1ccccc1`, the activity change, negative = inhibition in test [1] was -1.86%; in test [2] it was 2.56%; in test [3] it was 0.88%; in test [4], 2.72%; in test [5] it was 7.88%.
The matching figures for `Cc1ccc(C2(C(=O)N3C[C@@H](CN4CCCCC4)[C@@H](CO)C3)CC2)cc1`: -8.65%, -14.4%, -13.9%, -8% and -6.28%.
Regarding `COc1ccc2nc3n[nH]c(C)c3c(NCCOCCO)c2c1`, the activity change, negative = inhibition was -69.2% in test [1]; -49.5% in test [2]; -80.6% in test [3]; -54.8% in test [4]; -64.6% in test [5].
Regarding `Cc1ccc(C)c(NS(=O)(=O)c2cc(C(=O)Nc3ccccc3-c3ccccc3)ccc2C)c1`, the activity change, negative = inhibition in test [1] was 4.04%; in test [2], -10.7%; in test [3], 8.21%; in test [4], -24.4%; in test [5], -9.75%.
On the same counts, the results for `CC(C)CCn1c(=O)c2ccc(C(=O)NC3CCCC3)cc2n2c(=O)n(Cc3cccc(F)c3)nc12` are 3.72%, 0%, 5.28%, 3.66% and 5.36%.
In the case of `COC(=O)[C@@H]1Cc2nc[nH]c2CN1C1CCOCC1`, the activity change, negative = inhibition in test [1] was -3.69%; in test [2] it was -7.47%; in test [3], -2.51%; in test [4] it was -10%; in test [5], -9.21%.
For the compound `CC1(C)CC2C3=CCC4[C@@]5(C)CC[C@H](OC6OCC(O)C(OC7OC(CO)C(O)C(O)C7O)C6O)C(C)(C)C5CC[C@@]4(C)[C@]3(C)C[C@H](O)[C@@]2(CO)[C@H](OC(=O)c2ccccc2)C1` (stereo partly drawn), the activity change, negative = inhibition in test [1] was -2.35%; in test [2] it was 2.72%; in test [3] it was 5.82%; in test [4], -14.4%; in test [5], -11.6%.
Consider `CC(C)OCCCn1c(=O)c2cc(Cl)ccc2n2c(SCc3ccc(Cl)cc3)nnc12`, for which the activity change, negative = inhibition in test [1] was 3.9%; in test [2], 0%; in test [3] it was 6.23%; in test [4] it was -1.54%; in test [5], 0.073%.
On the same counts, the results for `CC1(C(=O)NC2CCCCCC2)Cn2c(cc3sccc32)C(=O)N1CCc1ccc(Cl)cc1` (stereo not drawn) are 1.9%, 2.52%, 4.46%, -3.27% and -0.238%.
For `c1cc(-c2n[nH]c(CC3CCNC3)n2)ccn1` (stereo not drawn), the activity change, negative = inhibition in test [1] was -5.95%; in test [2], -9.09%; in test [3], -5.92%; in test [4] it was -10.6%; in test [5], -12.9%.
As for `CCC(C)N1CCN(C(=O)Cn2c(=O)oc3cc(S(=O)(=O)NCc4ccccc4)ccc32)CC1` (stereo not drawn), the activity change, negative = inhibition is 12.3% in test [1]; 0.806% in test [2]; -0.841% in test [3]; -0.412% in test [4]; 4.49% in test [5].
With `COc1cc2c(CCNC(C)=O)c[nH]c2cc1Cl`, the activity change, negative = inhibition in test [1] was -6.16%; in test [2], 13.5%; in test [3], 10.9%; in test [4] it was -2.42%; in test [5], 5.16%.
The matching figures for `COc1ccc(CN2C(=O)c3cc(-c4ccccc4)nn3CC2(C)C(=O)NCc2ccccc2)cc1OC` (stereo not drawn): 0.143%, 4.69%, 1.96%, -17.8% and -4.58%.
`CC1(C(=O)NC2CCCCCC2)Cn2c(c(-n3cccc3)c3cc(F)ccc32)C(=O)N1Cc1cccc(F)c1` (stereo not drawn): the activity change, negative = inhibition in test [1] was -2.95%; in test [2] it was 4.82%; in test [3] it was -0.779%; in test [4] it was -0.581%; in test [5] it was -3.83%.
On the same counts, the results for `COCCNC(=O)C1COC2(CCN(C(=O)C3CC3)CC2)N1C(=O)c1cccc(OC)c1` (stereo not drawn) are 0.761%, -2.65%, 2.54%, -5.18% and -3.48%.
As for `Cn1cc(CN2C[C@@H]3C[C@H](C2)c2ccc(NS(=O)(=O)c4cccc(F)c4)c(=O)n2C3)c2ccccc21`, the activity change, negative = inhibition in test [1] is -10.7%; in test [2], -5.76%; in test [3] it was -16.9%; in test [4], -10.6%; in test [5] it was -7.58%.
On the same counts, the results for `Cc1cccc(COc2ccc3c(-c4ccccc4)cc(=O)oc3c2)c1` are -4.27%, 6.78%, -1.18%, 1.81% and -3.54%.
In the case of `CC(C)CCn1c(=O)c2ccccc2n2c(CCC(=O)NCCc3ccc(Cl)cc3)nnc12`, the activity change, negative = inhibition amounted to 0.782% in test [1]; 0% in test [2]; 10.9% in test [3]; 13% in test [4]; 2.37% in test [5].
The matching figures for `CN(C)[C@@H]1CN(Cc2ccc(C#N)cc2)C[C@H]1CO`: -0.884%, 1.09%, -2.84%, -5.69% and 13.5%.
As to `COCc1ccc(C(=O)N2CCCC(CCc3cccc(OC)c3)C2)o1` (stereo not drawn), the activity change, negative = inhibition in test [1] was -6.18%; in test [2] it was -3.64%; in test [3], -0.745%; in test [4], -9.17%; in test [5] it was -18.9%.
On the same counts, the results for `COCC1(C(=O)N2CCN(C)C3(CCNC(=O)CC3)C2)CCC1` (stereo not drawn) are -3.07%, -3.48%, -1.44%, -3.64% and -2.46%.
With `COc1cccc(-c2ccccc2NC(=O)C2CCN(CC=C(C)C)CC2)c1`, the activity change, negative = inhibition in test [1] was -3.23%; in test [2] it was -0.779%; in test [3], -51.7%; in test [4], -11.1%; in test [5] it was -3.13%.
On the same counts, the results for `CC(C)c1ccc2c(c1)CCC1[C@](C)(C(=O)O)CCC[C@]21C` (stereo partly drawn) are -4.42%, 0.715%, 10.5%, -16.9% and 0.768%.
On the same counts, the results for `C=Cc1ccc(Cn2nc3n(Cc4ccccc4)c(=O)c4ccc(C(=O)NCC(C)C)cc4n3c2=O)cc1` are 5.21%, 0%, 9.75%, 5.31% and 8.5%.
Consider `CC1CCN(S(=O)(=O)c2ccc3c(c2)oc(=O)n3CC(=O)N2CC(C)CC(C)C2)CC1` (stereo not drawn), for which the activity change, negative = inhibition in test [1] was -0.428%; in test [2], 0%; in test [3], 0.677%; in test [4], -0.708%; in test [5], -1.89%.
For the compound `COc1cccc(OC)c1C(=O)N[C@@H]1C(=O)N2[C@@H]1SC(C)(C)[C@@H]2C(=O)O`, the activity change, negative = inhibition is -1.89% in test [1]; -6.35% in test [2]; 7.07% in test [3]; -9.23% in test [4]; 4.32% in test [5].
In the case of `CCOC(=O)c1cc2n(n1)CC(C)(C(=O)NCc1ccccc1)N(Cc1cc(OC)ccc1OC)C2=O` (stereo not drawn), the activity change, negative = inhibition in test [1] is 0.355%; in test [2], 2.57%; in test [3] it was -5.25%; in test [4], 1.47%; in test [5], 1.38%.
The matching figures for `Cc1ccc(S(=O)(=O)NC(=O)NN2CCCCCC2)cc1`: -9.75%, 2.18%, -1.17%, -5.71% and 6.34%.
For the compound `CCN1C(=O)c2c(C(=O)NCc3ccccc3OC)ncn2CC1(C)C(=O)NC1CCCC1` (stereo not drawn), the activity change, negative = inhibition in test [1] was -4.85%; in test [2], -9.59%; in test [3], 2.04%; in test [4], -7.17%; in test [5] it was -3.02%.
On the same counts, the results for `Cc1ccc(NC(=O)Cn2c(=O)c3ccc(Cl)cc3n3nncc23)cc1` are -6.64%, 0.738%, -4.83%, -12.4% and -7.15%.
On the same counts, the results for `CCN1C(=O)c2cc(C(=O)NCCCOC(C)C)nn2CC1(C)C(=O)NC1CCCC1` (stereo not drawn) are 7.92%, 0%, -2.73%, 11.4% and 5.38%.
With `O=C1NC(Nc2ccccc2)=N/C1=C\c1ccc2c(c1)OCO2`, the results for the activity change, negative = inhibition in test [2], in test [4] and in test [5] were -8.46%, -19.1% and -2%, respectively.
For the compound `C=CCn1c(=O)c2ccc(C(=O)NCC(C)C)cc2n2c(=O)n(CC(=O)Nc3cccc(F)c3)nc12`, the activity change, negative = inhibition in test [1] was determined as 2.29%; in test [2], 0%; in test [3], 1.63%; in test [4], 1.43%; in test [5], 2.77%.
On the same counts, the results for `Cc1ccc(S(=O)(=O)c2nnn3c2nc(NCc2ccc(F)cc2)c2ccccc23)cc1` are -9.81%, 5.67%, -4.71%, -7.13% and -10.2%.
